{"source": "PubChem BioAssay (NCATS)", "note": "This is one part of the list. Further columns of the screen follow, without active or inactive calls. Most of these compounds were active or inconclusive in the main read-out, so they are no random draw. The note in brackets gives the kind of curve behind each potency; many fits are weak. Tags describe the fitted curve by direction and shape.", "data": [{"experiment": "qHTS Assay for Lipid Storage Modulators (AID 1519)", "details": "Drosophila S3 cells, BODIPY lipid droplet/cell ratio, laser cytometry; measured here: cell number channel AC50; cells loaded with oleic acid", "how_it_was_run": "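Cells seeded at 5,000 per well were treated with compounds over a concentration series and loaded with oleic acid (400 uM, as added). Lipid droplet fluorescence (488 nm excitation, 500-530 nm channel) was read by laser-scanning cytometry and normalized to 20 uM Triacsin C.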", "values": [{"smiles": "CC1c2cccc(O)c2C(O)=C2C(=O)[C@]3(O)C(O)=C(C(N)=O)C(=O)C(N(C)C)C3C(O)C21", "note": "(stereo partly specified)", "AC50": "6310 nM [rising, partial curve, poor fit]"}, {"smiles": "COc1cccc(Cn2c(=O)c(-c3cccc(C#N)c3)nc3cnc(N4CCOCC4)nc32)c1", "AC50": "2510 nM [rising, partial curve, poor fit]"}, {"smiles": "CCCn1c(=O)c(C)cn2nc(N)nc12", "AC50": "4470 nM [rising, full curve, poor fit]"}, {"smiles": "CCNc1ncc2nc(-c3ccccc3)c(=O)n(Cc3cccc(OC)c3)c2n1", "AC50": "1000 nM [rising, full curve, poor fit]"}, {"smiles": "COc1cccc(-c2cncnc2NCCc2c[nH]c3ccc(OC)cc23)c1", "AC50": "447 nM [rising, full curve]"}, {"smiles": "N#C[C@H](Cc1ccc(O)cc1)c1ccc(O)cc1", "AC50": "8910 nM [rising, full curve, poor fit]"}, {"smiles": "COc1ccc(CNc2ccnc(-c3ccoc3)n2)c(OC)c1", "AC50": "6310 nM [rising, partial curve, poor fit]"}, {"smiles": "COc1ccc(-c2nc3cnc(OC)nc3n(C3CC3)c2=O)cc1", "AC50": "2000 nM [rising, partial curve]"}, {"smiles": "O=C(c1cc(C(F)(F)F)cc(C(F)(F)F)c1)N1CCC2(CC1)CN(c1ncccn1)C2", "AC50": "25100 nM [rising, partial curve, poor fit]"}, {"smiles": "Cc1cccc(CNc2ncncc2-c2cccnc2)c1", "AC50": "5.01 nM [rising, full curve, poor fit]"}, {"smiles": "COc1ccc(-c2nc3cnc(N(C)C)nc3n(-c3ccccc3)c2=O)cc1", "AC50": "7080 nM [rising, partial curve, poor fit]"}, {"smiles": "COc1ccc2c(OC)c3ccoc3nc2c1OC", "AC50": "141 nM [rising, full curve]"}, {"smiles": "O=c1cc(-c2ccccc2O)oc2c(O)c(O)ccc12", "AC50": "28200 nM [rising, partial curve]"}, {"smiles": "CNc1ncncc1-c1ccccc1CN(C)C", "AC50": "1580 nM [rising, full curve, poor fit]"}, {"smiles": "Cc1c(C2CCN(CCc3ccccc3)CC2)noc1-c1ccc(Cl)cc1", "AC50": "794 nM [rising, full curve, poor fit]"}, {"smiles": "COCCn1c(=O)c(C)nc2cnc(OCc3ccccc3)nc21", "AC50": "1580 nM [rising, full curve]"}, {"smiles": "COc1ccc(-c2cc(=O)c3ccccc3o2)cc1", "AC50": "11.2 nM [rising, full curve]"}, {"smiles": "COc1ccc(Oc2ncc3nc(CCc4ccccc4)c(=O)n(CCC#N)c3n2)cc1", "AC50": "3550 nM [rising, partial curve, poor fit]"}, {"smiles": "COc1ncc2nc(CCc3ccccc3)c(=O)n(CCC#N)c2n1", "AC50": "70.8 nM [rising, full curve, poor fit]"}, {"smiles": "O=c1c(CCc2ccccc2)nc2cnc(N3CCOCC3)nc2n1C1CC1", "AC50": "316 nM [rising, full curve, poor fit]"}, {"smiles": "c1ccc(CNc2nc(-c3cccnc3)nc3ccccc23)cc1", "AC50": "3550 nM [rising, partial curve]"}, {"smiles": "COc1ccc(C(=O)N2CCC[C@@]3(CCN(C(=O)Nc4cccc(F)c4)C3)C2)cc1", "AC50": "3980 nM [rising, full curve, poor fit]"}, {"smiles": "CN(CCc1ccc(Cl)c(Cl)c1)C[C@@H](O)COc1ccc(NS(C)(=O)=O)cc1", "AC50": "14100 nM [rising, partial curve, poor fit]"}, {"smiles": "COc1ccccc1-c1cc(N(C)Cc2ccco2)ncn1", "AC50": "5620 nM [rising, full curve, poor fit]"}, {"smiles": "FC(F)(F)c1ccccc1-c1cc(NCc2cccnc2)ncn1", "AC50": "10000 nM [rising, partial curve]"}, {"smiles": "COc1ccc(C(=O)N2CCC3(CC2)CN(c2ccccc2)C3)cc1", "AC50": "5.62 nM [rising, full curve, poor fit]"}, {"smiles": "O=c1c(-c2cccs2)nc2cnc(N3CCNCC3)nc2n1CCc1ccccc1", "AC50": "708 nM [rising, single point]"}, {"smiles": "CN1CCN(c2ncc3nc(-c4ccccc4)c(=O)n(Cc4cccs4)c3n2)CC1", "AC50": "10000 nM [rising, partial curve]"}, {"smiles": "COc1ccc2[nH]cc(CCNc3cc(-c4ccccc4Cl)ncn3)c2c1", "AC50": "1780 nM [rising, partial curve, poor fit]"}, {"smiles": "COc1ccc(-n2c(=O)c(-c3cccc(F)c3)nc3cncnc32)cc1", "AC50": "631 nM [rising, full curve]"}, {"smiles": "COc1cccc(Cn2c(=O)c(-c3cc(F)cc(F)c3)nc3cnc(OC)nc32)c1", "AC50": "1580 nM [rising, partial curve, poor fit]"}]}]}
